The list shows a part of the results.

In this assay the target is T1, OsWOX13 (Oryza sativa, UniProt Q5QMM3 1-267).
T1 sequence: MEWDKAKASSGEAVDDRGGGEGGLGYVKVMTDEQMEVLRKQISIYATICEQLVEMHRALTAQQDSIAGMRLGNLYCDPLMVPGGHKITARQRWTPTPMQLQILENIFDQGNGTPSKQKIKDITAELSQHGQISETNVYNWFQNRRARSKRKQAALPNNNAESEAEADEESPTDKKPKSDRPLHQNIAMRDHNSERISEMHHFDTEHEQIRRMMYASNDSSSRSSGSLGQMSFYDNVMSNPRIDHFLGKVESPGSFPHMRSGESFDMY
The assay is described as follows: protein-binding microarray (RPBM); PBS, 2% BSA, 51.3 ng/ul salmon testes DNA, 50 uM zinc acetate, 200 nM TF, 25 C, 1 h; high values mean tight binding. Particulars: protein: recombinant; tags: N-terminal polyhistidine and DsRed monomer fusion (pET32a); label: CyDye5-dUTP incorporated in the synthesized complementary strand; 3' TTTTT single-stranded linker to array surface; dsDNA, one strand shown. The gist of the method: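 The binding signal for each feature is its fluorescence intensity in arbitrary units. An Axon 4000B scanner was used to read a custom Agilent array that had been made double-stranded with Cy5-dUTP primer extension, blocked with 2% BSA, incubated at 25 °C for 1 h with 200 nM protein in PBS, 2% BSA, salmon testes DNA and 50 µM zinc acetate, and washed. The protein was an N-terminal polyhistidine–DsRed transcription factor fusion from E. coli BL21-CodonPlus, purified on Ni–NTA.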
In the case of “ACAAAATAAAATGATGGGCATTTTCTTCAGTTACAATTTCCGGAGTCACCTAGTGCAG”, the binding signal is 3910 fluorescence intensity (a.u.).

For the sequence “ATAACTTATAATTGGATCTCACTGGTGACTGAACCAAGGACGGAGTCACCTAGTGCAG”, the binding signal is 15400 fluorescence intensity (a.u.).

On to “TCTGATTATGACTCGATTCAATTAGCAGCAACGACTAATGCGGAGTCACCTAGTGCAG”, for which the binding signal is 46700 fluorescence intensity (a.u.). Take “AAGACTAGATCTATAAATTTATGTACACTAGAGTCTTTGTCGGAGTCACCTAGTGCAG”: the binding signal was 3750 fluorescence intensity (a.u.). With “AGTTAATTATCTAGCTAGTGGAAGCTCCACATATATAATCCGGAGTCACCTAGTGCAG” the figure was 18200 fluorescence intensity (a.u.); with “TCTAAACTAATCTAATCTAGCAACGCGATTTAGCCGATACCGGAGTCACCTAGTGCAG”, 9190 fluorescence intensity (a.u.); with “ATTCATTAGGGTGTAATTTGTAAATTGTCTTGAGTCTTTACGGAGTCACCTAGTGCAG”, 5930 fluorescence intensity (a.u.).

Take “ATCGTGATTGATGGCATTGGTATAGATTTCGAGCATTGGCCGGAGTCACCTAGTGCAG”: the binding signal is 63900 fluorescence intensity (a.u.). With “TTAATTAGCTCATCATGCATCGATTGCTATCTACAAGCTTCGGAGTCACCTAGTGCAG” the figure was 19600 fluorescence intensity (a.u.).

Take “TATACTTAATTTGACCCACGGCATCATCGTGGTGTCGTCTCGGAGTCACCTAGTGCAG”: the binding signal is 8320 fluorescence intensity (a.u.).

Take “GATTGCAATTAAGTGATTTTGTAATTCATATAGTATGGGACGGAGTCACCTAGTGCAG”: the binding signal is 10100 fluorescence intensity (a.u.). With “TAATTGCTTAATTGCTTGATGTAGGGATATTAGAGCAATGCGGAGTCACCTAGTGCAG” the figure was 19100 fluorescence intensity (a.u.); with “AGTGCTGTAATGACTGTCATTAAGTAGGATTCAGACCAGGCGGAGTCACCTAGTGCAG”, 7850 fluorescence intensity (a.u.). With “TGCTGTAATTACTTTTCTGTAATTTGGATTAATCCTTCGCCGGAGTCACCTAGTGCAG” the figure was 40800 fluorescence intensity (a.u.); with “CAGATTATAATTGATAGACCGTAGGCTGTAGCTGATACTCCGGAGTCACCTAGTGCAG”, 39400 fluorescence intensity (a.u.); with “ATAAATTAATTGCCAAGTTGTACTCGGCGGCAACGGCAGCCGGAGTCACCTAGTGCAG”, 36700 fluorescence intensity (a.u.). With “TATAAGTTAAATCAATTTAATCAAGTAAAATAATGGGAGACGGAGTCACCTAGTGCAG” the figure was 11900 fluorescence intensity (a.u.); with “GCGGCTGGAATTTTCGAAATTAATCGAGATTGTAGAAATGCGGAGTCACCTAGTGCAG”, 3970 fluorescence intensity (a.u.); with “TTTGTTTTCAATCATGTACAACGTTTGTACGTACGGAAAGCGGAGTCACCTAGTGCAG”, 14300 fluorescence intensity (a.u.). Consider “AGTAACTGATATATAAGGATCTAACCACAAGATCATGGTGCGGAGTCACCTAGTGCAG”, for which the binding signal is 9100 fluorescence intensity (a.u.). With “TTATAATCACAAGTCAGATTTGTTAATTCCGTTGATCTCGCGGAGTCACCTAGTGCAG” the figure was 12800 fluorescence intensity (a.u.); with “CTCATGATTTGGTTAGTAGTAGTTGGTTGGTTAGTTTACGCGGAGTCACCTAGTGCAG”, 14500 fluorescence intensity (a.u.).

For “GAAAACCGACGAGAATTGCCAATTAGGCAGTGCTGACCGACGGAGTCACCTAGTGCAG”, the binding signal was 13200 fluorescence intensity (a.u.). As for “ACGATTGATGATTCACCAGAGATAGAGAACAGGGCAAGCACGGAGTCACCTAGTGCAG”, the binding signal was 20700 fluorescence intensity (a.u.). With “CAGGCTGACAGATGGTGTGCGCCGCCGGAATATTTCGCTACGGAGTCACCTAGTGCAG” the figure was 3360 fluorescence intensity (a.u.). With “ATACTAATTGGCGACAGATGATTGCACGTCTTATAGCTATCGGAGTCACCTAGTGCAG” the figure was 38400 fluorescence intensity (a.u.). With “TTGTATTGACTGAATGGCGCTCTTGGCTTACTTCACCGTTCGGAGTCACCTAGTGCAG” the figure was 23700 fluorescence intensity (a.u.); with “GAGCTTTGAATGCCAATCTTCACCACCATAGTAGTACTATCGGAGTCACCTAGTGCAG”, 4310 fluorescence intensity (a.u.); with “GAGTTCGATCGCAGTAATTAACCCCGTGACTAGAAATCTTCGGAGTCACCTAGTGCAG”, 3580 fluorescence intensity (a.u.).

As to “TGAGTATTTGATAGGCAGCTAACTGATAACGGACAGCACTCGGAGTCACCTAGTGCAG”, the binding signal is 19800 fluorescence intensity (a.u.).

As for “ATAATAGATTTGGTCAAAATTTATCGAAAACCGATCGAAACGGAGTCACCTAGTGCAG”, the binding signal is 13200 fluorescence intensity (a.u.).

On to “GTCTTAATTATATTTGATAATCAACTTTATCCTTGGTTTGCGGAGTCACCTAGTGCAG”, for which the binding signal was 50800 fluorescence intensity (a.u.). With “CCTGATTTGGAGGTTTTGTTGGGTGCAGACCATTCAGGGGCGGAGTCACCTAGTGCAG” the figure was 30200 fluorescence intensity (a.u.); with “AAGATACGTGATTGAAATCATTCCATTATGGACGACATTGCGGAGTCACCTAGTGCAG”, 54000 fluorescence intensity (a.u.). As for “TTCAGGATGATTGACCCGGATGGAAGGAGGAATTCGTTGTCGGAGTCACCTAGTGCAG”, the binding signal was 52200 fluorescence intensity (a.u.). With “GAGCAATTTGCTTTGATTAAGGTTCTCTCAACAAGAGGAACGGAGTCACCTAGTGCAG” the figure was 4760 fluorescence intensity (a.u.); with “AACTTGATTGCGACCTGTCAACACACAGGTTTTATTATTTCGGAGTCACCTAGTGCAG”, 35600 fluorescence intensity (a.u.). With “ATCTAAATCGTTGATGATTTTCGGAGCCACCGTGCGAAACCGGAGTCACCTAGTGCAG” the figure was 5020 fluorescence intensity (a.u.). With “TTTATTTCTAACGATGAAATTGACTGAGGGGTAATTTCGTCGGAGTCACCTAGTGCAG” the figure was 9720 fluorescence intensity (a.u.); with “CAGTAACTGTTACTGTTGCTACTATATCACTTGATATTCACGGAGTCACCTAGTGCAG”, 3230 fluorescence intensity (a.u.).

As for “CAAGCTAATCAGTCTTGGCAAGAAGTATATGCACAGCCTCCGGAGTCACCTAGTGCAG”, the binding signal is 3400 fluorescence intensity (a.u.). With “TTTTAGATCTAAATTTATACCATAATATAAACATCTTTGGCGGAGTCACCTAGTGCAG” the figure was 7110 fluorescence intensity (a.u.).

These data come from PMC7819943, “Rice protein-binding microarrays: a tool to detect cis-acting elements near promoter regions in rice”.
